Assay results as given in ChEMBL document CHEMBL4888484, “Replenishing the malaria drug discovery pipeline: Screening and hit evaluation of the MMV Hit Generation Library 1 (HGL1) against asexual blood stage Plasmodium falciparum ,using a nano luciferase reporter read-out” (2022).
Screen size: about 4,800 compounds; about 420 (8.8%) showed an effect of 50% or more. This is one part of the list.

What follows are compounds tested on Plasmodium falciparum (assay: Confirmatory screen in NF54 nanoGlo assay, in single point, at 2uM, 72h). Conditions: timepoint 72 hour.
Format: functional, Erythrocyte

Row | SMILES | % Inhibition [%]
1 | O=C(NC1CCN(Cc2ccccc2)CC1)c1cn[nH]c1-c1ccccc1 | -3
2 | CCC(=O)Nc1ccc(-n2cnc(C(=O)NCc3ccco3)c2)nc1 | -11
3 | O=C(CCCCC(=O)n1nnc2ccccc21)n1nnc2ccccc21 | -10
4 | Cn1c(C(=O)Nc2ccc(S(N)(=O)=O)cc2)cc2occc21 | -14
5 | Cc1noc(C)c1NC(=O)CCS(=O)(=O)c1ccc2ccccc2c1 | -6
6 | COC[C@H](O)CNC(=O)c1cccn1C1CC1 | -1
7 | CN1c2cc(C(=O)N3CCc4ccccc4C3)ccc2C(=O)N2CCCC[C@H]21 | -6
8 | COc1ccc(-c2nn(CN(C)OC)c(=S)o2)cc1OC | -12
9 | COc1ccccc1C(=O)N1CCC([C@H](NC(=O)c2ccc3c(c2)OCO3)C(=O)NC(C)C)CC1 | 4
10 | O=C(c1[nH]nc(C2CC2)c1Br)N1CCC12CCC2 | -8
11 | Cc1ccc(NC(=O)CN2N=C(C(=O)Nc3ccc(F)cc3)CCC2=O)cc1F | -12
12 | Brc1cccc2c1OCC[C@@H]2Nc1ncnc2nc[nH]c12 | 17
13 | Cc1cc(Oc2ncccn2)ccc1NC(=O)N1CCOCC1 | 5
14 | Oc1ccc2cc(CN3CCC[C@H](CN4CCCC4)C3)ccc2c1 | 17
15 | Cc1cc(NC(=O)c2ccn(-c3nc(-c4cnn(C)c4)cc(C(F)(F)F)n3)n2)no1 | 1
16 | Cc1cccc(S(=O)(=O)Nc2ccc3nc(NC(=O)c4ccccc4)sc3c2)c1 | -2
17 | C#CCN(C(=O)c1cnn(CC(C)C)c1C(F)F)c1nccs1 | -1
18 | CNC(=O)Cc1noc(-c2sccc2C#N)n1 | -6
19 | CN(c1ccc(Br)cc1)S(=O)(=O)c1ccc2c(c1)CCN2C(=O)C1CCC1 | -7
20 | Cc1ncsc1CNS(=O)(=O)c1ccc(OCC(F)F)cc1 | 0
21 | Cc1nc(N2CCOCC2)nc2c1CCCC2 | 3
22 | O=C(c1cccs1)N1CCN(C2CCCCC2)CC1 | -12
23 | O=C(Nc1ccc(N2CCCCCC2)cc1C(=O)O)c1ccc(Cl)cc1 | 8
24 | C[C@H]1CCN(c2nc(-c3ccccn3)nc3c2CCC3)C1 | 91
25 | Cc1cnc(CNC(=O)Nc2nnc3ccccn23)s1 | -13

Row | SMILES | % Inhibition [%]
26 | CCc1[nH]nc(NC(=O)c2c(C)ccnc2O)c1C | -10
27 | CN(C)c1ccc(-c2nc3[nH]cnn3c2Nc2ccccc2)cc1 | 4
28 | C[C@H](NCCc1ccccc1)c1cccc(COc2nn3c(C(F)(F)F)nnc3c3ccccc23)n1 | -2
29 | COc1cc(C(=O)Nc2ccc3sc(NC(=O)c4cc(OC)c(OC)c(OC)c4)nc3n2)cc(OC)c1OC | 56
30 | COC1C(C(N)=O)OC2OC3(CCCCC3)OC21 (centres undefined) | -7
31 | CCOC(=O)C1CCN(C(=O)c2nc(-c3ccc(N4CCCC4)nc3)no2)CC1 | 3
32 | COc1ccc(-c2noc(Cn3c(=O)c4ccccc4n(CC(=O)NCCc4ccc(OC)c(OC)c4)c3=O)n2)cc1 | 0
33 | CC(C(=O)N1N=CCC1(O)C(F)(F)F)n1nc(C(F)(F)F)cc1C1CC1 (centres undefined) | -1
34 | O=C(NCc1ncc[nH]1)[C@@H]1COc2ccc(Br)cc21 | 11
35 | CCn1ccc(C(=O)NC2CCN(c3nnc4ccc(Cl)cn34)CC2)n1 | -10
36 | COc1cccc(S(=O)(=O)N2CCC(OCCOc3ccccc3)CC2)c1 | 0
37 | O=C(Nc1cccc(Oc2c(F)c(F)c(-c3c(F)c(F)c(Oc4cccc(NC(=O)c5ccccc5)c4)c(F)c3F)c(F)c2F)c1)c1ccccc1 | 5
38 | O=S(=O)(c1ccccc1F)C1CNC1 | -12
39 | CC(C)(C)c1ccc(C(=O)N[C@H]2CCCC[C@@H]2NC(=O)c2ccc(C(C)(C)C)cc2)cc1 | -5
40 | CCN1CCN(CC(=O)N2N=C(c3ccc(C)c(C)c3)C[C@H]2c2cccn2C)CC1 | 7
41 | Cc1ccc(CN2C(=O)NC3(CCCCC3C)C2=O)c(OCC2CCOC2)c1 (centres undefined) | 1
42 | CCC(=O)Nc1nc(-c2ccccc2)nc2c1C(=O)CCC2 | -2
43 | COc1cccc(N2CCN(C(=O)c3nn(-c4ccc(C)cc4)c(OC)cc3=O)CC2)c1 | -11
44 | O=C(NCC1CC2CCC1C2)N1CCOC(Cn2cccn2)C1 (centres undefined) | -16
45 | C=CCNCc1ccc(Br)cc1 | -13
46 | CC1CN(C(=O)C(Cc2ccccc2)NC(=O)c2ccccc2)CC(C)O1 (centres undefined) | -5
47 | Nc1ncnc(NCc2cccnc2OCC(F)F)c1Cl | 7
48 | c1ccc(CNc2ncnc3c2cnn3-c2ccccn2)cc1 | -4
49 | Cc1nnc(O)c(CNC(=O)COC2CCCC(C)C2)c1C (centres undefined) | -7
50 | CC(C)C(=O)N1N=C(C(C)C)C[C@]1(O)C(F)(F)F | -1

Row | SMILES | % Inhibition [%]
51 | O=C(Cn1c(=O)n(C2CC2)c(=O)c2snc(-c3ccccn3)c21)NCc1ccccc1 | 3
52 | CCc1cc(C(=O)N2CCC(C)CC2)c2c(C3CC3)nn(-c3ccc(F)cc3)c2n1 | 1
53 | CC[C@@H](CO)Nc1ncc2cc3ccccc3nc2c1C#N | -3
54 | O=C(N[C@H]1C[C@@H]2C[C@H]1CN2C(=O)c1cccc(C(F)(F)F)c1)c1ccccc1 | 3
55 | CCc1cccc(NC(=O)C2CCN(c3c(C)n(-c4ccccc4)c(=O)n(CC(C)C)c3=O)CC2)c1 | -4
56 | N#CCCN(C(=O)COC(=O)c1ccc(S(=O)(=O)N2CCOCC2)cc1)c1ccccc1 | 3
57 | CC(C)(NCCc1c[nH]c2ccccc12)c1nnnn1Cc1cccnc1 | 3
58 | Cn1c(-c2ccc(Cl)c(Cl)c2)c[n+](CC(=O)c2ccc(F)cc2)c1N | -13
59 | COc1ccc(CNCCC2C(C)CN(C)C(C)C2Cc2ccccc2)cc1 (centres undefined) | 59
60 | Cc1cccc(OC(=O)O[C@H]2c3nccnc3C(=O)N2c2ccc(Cl)cn2)c1 | -1
61 | CC(C)(C)c1ccc(-c2cc(C[C@H]3CNCC[C@H]3CC(=O)NCCN3CCOCC3)no2)cc1 | 9
62 | CC(=O)c1ccc(N2CCN(c3nccn4nc(-c5ccccc5C)cc34)CC2)cc1 | -5
63 | O=C(O)C[C@@H]1CCN(CC2CC2)C[C@@H]1Cc1nc2ccccc2[nH]1 | 2
64 | CC(C)N1CCC2(CC1)N=C(c1ccc3c(c1)OCO3)C[C@@H](c1cc(Cl)ccc1O)N2 | 41
65 | CN(C)c1ccc(C(=O)N[C@@]2(C)CCS(=O)(=O)C2)cc1 | -6
66 | COc1ccc(CCNc2nc(-c3ccc(OC)cc3F)c3c(N)n(-c4ccc(Cl)cc4)nc3n2)cc1 | 59
67 | CS(=O)(=O)N1CC[C@H](CC(=O)NCCCc2ccccc2)C1 | 2
68 | Cc1ccc(OCn2cc(NS(=O)(=O)c3cnn(C)c3C)cn2)c(C)c1 | -3
69 | CCN1C(=O)[C@]2(NC3(CCCCC3)C(=O)N2CC)c2ccccc21 | -9
70 | CCn1cc(-c2nc(-c3ccccc3C)no2)c(=O)c2cc(F)c(N3CCCCC3)cc21 | 47
71 | O=C1CCc2[nH]c(=O)n(C3CCCCC3)c(=O)c21 | 4
72 | COc1cccc(CCc2ccccc2OC[C@H](CN(C)C)OC(=O)CCC(=O)O)c1 | -8
73 | O=C(CN1CCCCC1=O)NCCc1c[nH]c2ccccc12 | -10
74 | Cn1n[n+](CCCCC(Cl)(Cl)Cl)c2ccccc21 | 53
75 | c1cc(-c2nc3cc4ccccc4cc3[nH]2)nc(-c2nc3cc4ccccc4cc3[nH]2)c1 | 99

Row | SMILES | % Inhibition [%]
76 | CN(C)/C=C/c1cc(C#N)c(C#N)cc1Br | -4
77 | CCn1cc(Cl)c(C(=O)N2N=C3/C(=C/c4ccc5c(c4)OCO5)CCCC3C2c2ccc3c(c2)OCO3)n1 (centres undefined) | 5
78 | COc1cc(C(c2c(C)n(C)n(-c3ccccc3)c2=O)c2c(C)n(C)n(-c3ccccc3)c2=O)c(Br)c(Br)c1OCc1ccccc1 | 7
79 | CCn1nccc1C(=O)NC1CCN(c2nnc3ccccn23)CC1 | -1
80 | COc1nc(NC[C@H]2CCCN2C(C)C)ncc1F | 66
81 | Cc1nn(-c2ncc(C(F)(F)F)cc2Cl)c(=O)n1-c1ccc(OCc2ccccc2)cc1 | -17
82 | C[C@H](NC(=O)c1ccsc1)c1cccs1 | 2
83 | Cc1cccc(C)c1NC(=O)C1(N(Cc2ccco2)C(=O)c2ccc(Cl)cc2)CCC(C)CC1 (centres undefined) | 4
84 | COCCN1CC2(CCCC2)N(C(=O)COc2ccc(F)cc2)CC1=O | -7
85 | Cc1ccc(N(Cc2cccs2)C(=O)c2cccs2)cc1Cl | 38
86 | O=C(c1ccccc1)c1c[nH]c2c(F)cc(F)cc2c1=O | -5
87 | O=C(NC1CCS(=O)(=O)C1)C1CC=CCC1 (centres undefined) | -6
88 | CCCN(CCO)C(=O)Nc1ccn(Cc2cn3ccccc3n2)n1 | -1
89 | N#CC1CCC(Nc2cnn(-c3ccncc3)c2)CC1 (centres undefined) | 5
90 | Cc1ccc(Cn2cnc(NC(=O)CCn3c(=O)cc(C(F)F)c4cn(C)nc43)n2)cc1 | -8
91 | COCCCn1c(NS(=O)(=O)c2ccc3ccccc3c2)c(S(=O)(=O)c2ccc(C)cc2)c2nc3ccccc3nc21 | 56
92 | COc1cc(CNCCc2ccccc2F)ccc1OCc1nnnn1-c1ccc(C)cc1 | -2
93 | CCC(C)(CC)[C@@](O)(C#CC[N+]1(Cc2ccccc2)CCCCC1)c1ccccc1 | 7
94 | Nc1nc2c(s1)CN(CCc1ccccc1)CC2 | 38
95 | Cc1cc(NC(=O)c2ccc(COc3ccc4ccccc4c3)o2)nn1C | -3
96 | CCNC(=O)C(=O)NCc1ccc(Cl)cc1 | 2
97 | NC(=O)c1ccccc1NC(=O)C1CCN(c2cc(C3CC3)ncn2)CC1 | 53
98 | CN(Cc1ccccc1)C(=O)C1CC=CCC1C(=O)Nc1ncc(-c2ccc3c(c2)OCO3)n1C (centres undefined) | 8
99 | Cc1ccc(-c2cc3c(N4CCCN(C)CC4)nccn3n2)c(C)c1 | 4
